Laboratory results from EPA's CvTdb concentration-time database.
The source gives many values for each of these; only a part stands here.

Experiments:
Experiment in all cases: concentration in plasma after dosing
[1] = system: Rat; settings: dosed: 2-Hydroxy-4-methoxybenzophenone, 500 mg/kg, oral, Male, F344
[2] = system: Mouse; settings: 1 h; dosed: 2-Hydroxy-4-methoxybenzophenone; 50 mg/kg; iv; Female; B6C3F1
[3] = system: Rat; settings: 6 h; dosed: 2-Hydroxy-4-methoxybenzophenone; 500 mg/kg; oral; Female; F344
[4] = system: Rat; settings: dosed: 2-Hydroxy-4-methoxybenzophenone, 250 mg/kg, oral, Female, F344
[5] = system: Rat; settings: dosed: 2-Hydroxy-4-methoxybenzophenone, 8 mg/kg, iv, Male, F344
[6] = system: Rat; settings: dosed: 2-Hydroxy-4-methoxybenzophenone, 500 mg/kg, oral, Male, F344; remark: listed apart in the source
[7] = system: Rat; settings: dosed: 2-Hydroxy-4-methoxybenzophenone, 8 mg/kg, iv, Male, F344; remark: listed apart in the source
[8] = system: Rat; settings: dosed: 2-Hydroxy-4-methoxybenzophenone, 8 mg/kg, iv, Female, F344
[9] = system: Mouse; settings: 4 h; dosed: 2-Hydroxy-4-methoxybenzophenone; 500 mg/kg; oral; Male; B6C3F1
[10] = system: Rat; settings: dosed: 2-Hydroxy-4-methoxybenzophenone, 8 mg/kg, iv, Female, F344; remark: listed apart in the source
[11] = system: Rat; settings: dosed: 2-Hydroxy-4-methoxybenzophenone, 500 mg/kg, oral, Female, F344
[12] = system: Rat; settings: dosed: 2-Hydroxy-4-methoxybenzophenone, 500 mg/kg, oral, Female, F344; remark: listed apart in the source
[13] = system: Mouse; settings: dosed: 2-Hydroxy-4-methoxybenzophenone, 100 mg/kg, oral, Male, B6C3F1
[14] = system: Rat; settings: dosed: 2-Hydroxy-4-methoxybenzophenone, 100 mg/kg, oral, Female, F344
[15] = system: Mouse; settings: 7 h; dosed: 2-Hydroxy-4-methoxybenzophenone; 250 mg/kg; oral; Female; B6C3F1
[16] = system: Mouse; settings: 4 h; dosed: 2-Hydroxy-4-methoxybenzophenone; 250 mg/kg; oral; Male; B6C3F1
[17] = system: Mouse; settings: 1 h; dosed: 2-Hydroxy-4-methoxybenzophenone; 50 mg/kg; iv; Female; B6C3F1; remark: listed apart in the source
[18] = system: Rat; settings: dosed: 2-Hydroxy-4-methoxybenzophenone, 250 mg/kg, oral, Male, F344
[19] = system: Rat; settings: dosed: 2-Hydroxy-4-methoxybenzophenone, 8 mg/kg, iv, Male, F344; remark: listed apart in the source
[20] = system: Rat; settings: dosed: Perfluorohexanoic Acid, 160 mg/kg, oral, Male, Harlan Sprague Dawley
[21] = system: Rat; settings: dosed: Perfluorohexanoic Acid, 40 mg/kg, oral, Male, Harlan Sprague Dawley
[22] = system: Mouse; settings: 6 h; dosed: 2-Hydroxy-4-methoxybenzophenone; 500 mg/kg; oral; Female; B6C3F1
[23] = system: Rat; settings: 2 h; dosed: 2-Hydroxy-4-methoxybenzophenone; 250 mg/kg; oral; Female; F344
[24] = system: Rat; settings: dosed: 2-Hydroxy-4-methoxybenzophenone, 250 mg/kg, oral, Male, F344; remark: listed apart in the source
[25] = system: Rat; settings: dosed: 2-Hydroxy-4-methoxybenzophenone, 500 mg/kg, oral, Male, F344; remark: listed apart in the source
[26] = system: Mouse; settings: 0.5 h; dosed: 2-Hydroxy-4-methoxybenzophenone; 500 mg/kg; oral; Male; B6C3F1
[27] = system: Mouse; settings: 5 min; dosed: 2-Hydroxy-4-methoxybenzophenone; 250 mg/kg; oral; Female; B6C3F1
[28] = system: Mouse; settings: 1.5 h; dosed: 2-Hydroxy-4-methoxybenzophenone; 50 mg/kg; iv; Male; B6C3F1
[29] = system: Rat; settings: 2 h; dosed: 2-Hydroxy-4-methoxybenzophenone; 500 mg/kg; oral; Male; F344
[30] = system: Rat; settings: dosed: 2-Hydroxy-4-methoxybenzophenone, 100 mg/kg, oral, Female, F344; remark: listed apart in the source
[31] = system: Mouse; settings: 2.5 min; dosed: 2-Hydroxy-4-methoxybenzophenone; 500 mg/kg; oral; Male; B6C3F1
[32] = system: Mouse; settings: 4 h; dosed: 2-Hydroxy-4-methoxybenzophenone; 50 mg/kg; iv; Male; B6C3F1
[33] = system: Mouse; settings: 6 h; dosed: 2-Hydroxy-4-methoxybenzophenone; 250 mg/kg; oral; Female; B6C3F1
[34] = system: Mouse; settings: 0.5 h; dosed: 2-Hydroxy-4-methoxybenzophenone; 250 mg/kg; oral; Male; B6C3F1

COc1ccc(C(=O)c2ccccc2)c(O)c1 [2-Hydroxy-4-methoxybenzophenone]
Settings | concentration in plasma [ng/mL]
[1], 2 h | 804
[1], 5 min | 24.7
[4], 2 h | 114
[4], 5 min | 27.9
[5], 4 h | 56.2
[5], 5 min | 8660
[6], 1 h | 2350
[6], 8 h | 274
[7], 0.5 h | 593
[7], 8 h | 16.3
[8], 1.5 h | 94.3
[8], 8 h | 11.9
[10], 5 min | 5680
[10], 10 h | 11.9
[11], 0.5 h | 380
[11], 12 h | 20.2
[12], 1 h | 3600
[12], 8 h | 113
[13], 0.5 h | 58.7
[13], 0.75 h | 74.3
[13], 1 h | 28.8
[13], 1.5 h | 31.6
[13], 4 h | 16.6
[13], 5 h | 16.2
[13], 5 min | 49.9
[13], 6 h | 13.4
[14], 1.5 h | 74.9
[14], 8 h | 5.22
[18], 0.5 h | 527
[18], 10 h | 13
[19], 0.5 h | 791
[19], 8 h | 19.3

Settings | concentration in plasma [ng/mL]
[2] | 780
[3] | 74.9
[9] | 80.4
[15] | 12
[16] | 26.1
[17] | 1130

O=C(O)C(F)(F)C(F)(F)C(F)(F)C(F)(F)C(F)(F)F [Perfluorohexanoic Acid]
concentration in plasma [ng/mL]
Settings | [20] | [21]
3 h | 234000 | 17600
5 min | 103000 | 21400

O=C(c1ccccc1)c1ccc(O)cc1O [2,4-Dihydroxybenzophenone]
Settings | concentration in plasma [ng/mL]
[22] | 241
[23] | 147
[26] | 3130
[27] | 944
[28] | 104
[29] | 416
[31] | 198
[32] | 172
[33] | 42
[34] | 1120

concentration in plasma [ng/mL]
Settings | 1 h | 1.5 h | 6 h | 8 h
[24] | 231 | – | 97.9 | –
[25] | 1610 | – | – | 228
[30] | – | 140 | – | 75.5
